T1: UNK ZnF1-3 (human, UniProt Q9C0B0 31-174)
T1 sequence: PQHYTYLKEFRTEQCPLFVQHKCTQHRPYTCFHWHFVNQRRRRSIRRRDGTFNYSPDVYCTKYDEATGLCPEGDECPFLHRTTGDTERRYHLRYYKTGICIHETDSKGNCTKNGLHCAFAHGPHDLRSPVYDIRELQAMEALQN

B1: chr2:187373433:187373434:+_ENSG00000065548_ENST00000337859|hu_hu|motif|central (ssRNA)
RNA: GGGAGUUCUACAGUCCGACGAUCUUUUCAGCGAUGUGUUUGGUGUCAUUCUUCUAAAUCAAGUGUAUUUAAUUCUUCUUCGGGUUCAUCCAAAUCCUCUCCAGUGAAAAGAUUUUCAUCAACAGGAACAGCAUCAAUGGCUCCCAACAGAGGAUUGAGCAUCA
B2: chr4:17845017:17845018:+_ENSG00000109805_ENST00000514176|hu_mus|hu_hu_hu_mus_False|8_88 (ssRNA)
RNA: GGGAGUUCUACAGUCCGACGAUCGCUCUCUUAACUUGUAUCUUCAUGAGAAAUUGGUGCAAGGUUAAGUUUACUUUUCUGUAGCGCAGCUGUUUUGGCUCGUCUGGGUAAUCUCAUCUUCAUUUCUAUUCUGGUUCCAUGAUCCAACAGAGGAUUGAGCAUCA
B3: chr11:43702452:43702453:+_ENSG00000149084_ENST00000278353|hu_mus|FALSE|FALSE (ssRNA)
RNA: GGGAGUUCUACAGUCCGACGAUCCAAGGCCUCGUUGCCCACGCACCACACCUGGAAGGCCCUGAAGAGCGAGUACGAGGCUCGCAGGGCCAGGUAGGCAAUGGUGCUCGCGCCCACCCAGUACAGGAAGCCGGCCGCCGGGGGCAACAGAGGAUUGAGCAUCA
B4: chr2:48026839:48026840:+_ENSG00000116062_ENST00000540021|hu_hu|hu_hu_hu_mus_False|8_18 (ssRNA)
RNA: GGGAGUUCUACAGUCCGACGAUCAUAGUGAGCCACUAGCGUCCUAAAUCUGGAACAGUGGCGGUCAUCCGAAAACUGGCCGAUGAAAAACUUGCCCAGUGAAGUGUCCACAAAGCACACACCAUAUGCACGAGUAUGACCAGACAACAGAGGAUUGAGCAUCA
B5: chr14:62224477:62224478:+_ENSMUSG00000035235_ENSMUST00000039562|mus_hu|motif|central (ssRNA)
RNA: GGGAGUUCUACAGUCCGACGAUCUUCAUUGAAAAUGAAAAACCCAUCUGUCACCUGUUCCCAGUAAAAAACUGAUUGUUCGGUGAAAUCGGCUGUUUUAGUCAGAUAGGAACUGAAGUUUGAAAGACAGCCUUUCCAAGUUGCCAACAGAGGAUUGAGCAUCA
B6: chr5:67446008:67446009:+_ENSMUSG00000037736_ENSMUST00000038188|mus_hu|FALSE|FALSE (ssRNA)
RNA: GGGAGUUCUACAGUCCGACGAUCUACCUCCAAAGGUAAGUAACACAAAUGUUUCAGGAUUACAGUAUAUAUUAUCAAACUAGUGUCUUUGCAUUAAAAACAAAUUAUAGCUCAGAGAUAGAGCUUGCUGUGAUGUUUAGUUUCCAACAGAGGAUUGAGCAUCA
B7: chr12:103220134:103220135:+_ENSMUSG00000041781_ENSMUST00000047357|mus_mus|FALSE|FALSE (ssRNA)
RNA: GGGAGUUCUACAGUCCGACGAUCAGAGAGGGUGGUUAACUUGAUGAUAGAUGUCAUCUUUCUGGUCCAGUAAUGGGUAGCUAAAAGGGCCUGCCAGGCCAAUCUCCCCCCGGCACCGUCCGCCGCCCUUCCCAACCCCUAGUGCAACAGAGGAUUGAGCAUCA
B8: 100943914_100944342_96_5pUTR_ENSMUSG00000001755_ENSMUST00000001806|mouse|control|control (ssRNA)
RNA: GGGAGUUCUACAGUCCGACGAUCCUGAGCGGAACACGGCCAUGCUCUCCAGGCACCGCCGUGGAGGCGUCCUAGGCUGCAGCCCGGAAGCACUACCCACCAGCCUCAAAGCGUGGAGCUACGGGAACUCAGAGCAAUCAAACACAACAGAGGAUUGAGCAUCA
B9: 20483050_20486938_462_CDS_ENSG00000112242_ENST00000535432|human|control|control (ssRNA)
RNA: GGGAGUUCUACAGUCCGACGAUCAUAUGUAACAUAAGCUAACCUUUGAUUCUCUGAAUCCUCGGUUAACAGUUUGAGGUCCAGGGUGCAGCUUUGGAUCAGUUCAUCUAAUUUCUUCUCUUCCUGACUGAGCUCGGUCACUUCCAACAGAGGAUUGAGCAUCA
B10: chr6:30774501:30774502:-_ENSMUSG00000025607_ENSMUST00000048774|mus_hu|FALSE|FALSE (ssRNA)
RNA: GGGAGUUCUACAGUCCGACGAUCGAGGGUGGUGAUGGCCAGCGUGGCAAUGCUGCGGUUUGAAUCUGUGACCAGGUUCUCCAGAUCCAGAUUACAAGCUGUCACAGCUGACGGAUGCUUCAUGGCAACCUUAUUGAGGGUACGCAACAGAGGAUUGAGCAUCA
B11: chr1:46159212:46159213:+_ENSG00000159596_ENST00000372025|hu_mus|hu_hu_hu_mus_True|18_108 (ssRNA)
RNA: GGGAGUUCUACAGUCCGACGAUCUCUGAUCCCACCCAAGAAAGCUAGGAAACCGGCUCCAUAAGCCAUCUGAGUGAAAGCUAGGACGGGGAUAUAAGACUUUGUUAUUACCAUGAGCAGUGGUGGAGCAGUAAAGGGGAUUAACAACAGAGGAUUGAGCAUCA
B12: chr7:97619395:97619396:-_ENSMUSG00000030614_ENSMUST00000032843|mus_hu|FALSE|FALSE (ssRNA)
RNA: GGGAGUUCUACAGUCCGACGAUCCAAUGAUGCAUAUGUCUUCAAAGCAUCAUGUUUAACCUUGAAGCAGCGUCUGAACAGGAAGUUUGAGAAUAUUCCAGAGAAACCAGCUGUUGUUCCAAAUGUCGCCAUUUGAUAUAUAUUCAACAGAGGAUUGAGCAUCA
B13: chr4:76721835:76721836:+_ENSG00000138768_ENST00000264904|hu_mus|hu_hu_hu_mus_True|38_88 (ssRNA)
RNA: GGGAGUUCUACAGUCCGACGAUCGUUUGGCUGGGGUUUCUGAGACGUCUGGAAUACUAACUCAUGUUUGCUAAUAAAUCCUAGUUUCUCUAUGAAAUCUCUUUGCCCAAUCCUCUUCUCUAUUAGUUGCUUUAGUUUCUCUUUCAACAGAGGAUUGAGCAUCA
B14: chr1:127300101:127300102:-_ENSMUSG00000026341_ENSMUST00000027579|perfect_dup|FALSE|FALSE (ssRNA)
RNA: GGGAGUUCUACAGUCCGACGAUCAGUAUACUGUUUAAUCCAUUUUGACCCAUCUGUAUCAUACUUGUUAAAUUCUUUUACUAAAUCUGGGCAGACAUAACUAUAGCGCUCCUUUACUGCCUUAGCAGUUUCCAAGGAUUGUUCCAACAGAGGAUUGAGCAUCA
B15: 36893413_36894925_731_3pUTR_ENSMUSG00000034243_ENSMUST00000039855|mouse|control|control (ssRNA)
RNA: GGGAGUUCUACAGUCCGACGAUCCCUCAAUUUCUGUUGCAUCUCUGUUUCCACAUCUGACUGGGUUACUAACUGAAGGAGCUCAUCUUCAUGGAGACGAACCUGUGUUUCAAAGCGGGCGUCUUUCUCUCGGACCACCUGCUGCAACAGAGGAUUGAGCAUCA
B16: chr17:60642451:60642452:+_ENSG00000146872_ENST00000343388|hu_mus|FALSE|FALSE (ssRNA)
RNA: GGGAGUUCUACAGUCCGACGAUCUUCCUGUUGCUUGAUGAGGUUUUGGAAAGCAUAACCAUCUGUCCACUGCUCAGUAAACGAGGCUCCAUGCCGGACAGUAGUAAAGUGGCCUAAUCGCAAUCGGUCCUGCAUGCUCUUAUCCAACAGAGGAUUGAGCAUCA
B17: 20082194_20113866_740_CDS_ENSG00000114166_ENST00000263754|human|control|control (ssRNA)
RNA: GGGAGUUCUACAGUCCGACGAUCGUUAGGGUUUUUCCAGCCAUUACAUUUACAAGACUCCUCGGCCUUGCAGGCGGAGUACACUCCGAGUUUCUCCAGUUUCUUGGCCCGCGGAGCGGAGCGUAGUUGCGCUUUCUUCACGGCCAACAGAGGAUUGAGCAUCA
B18: chr1:118502009:118502010:+_ENSG00000065183_ENST00000349139|hu_hu|motif|central (ssRNA)
RNA: GGGAGUUCUACAGUCCGACGAUCCGUUAGAAUCAACUUCUCCCUCUUUUUCCUCUUCCUCUUCUUCUCUUCCAAGUGGCGGGUAGCAUCAGCAAAAAACAUAACUUCACUUUUUGCCUCGCAUUCCCUCUUGAGAUAAUCAAGCAACAGAGGAUUGAGCAUCA
B19: chr4:57314706:57314707:+_ENSG00000128050_ENST00000264221|hu_mus|hu_hu_hu_mus_True|18_78 (ssRNA)
RNA: GGGAGUUCUACAGUCCGACGAUCCAGAAUUUCAAAAAUAGCUUGUGUGGCAUGACUCAUGAUAUCCACUUCAGUCUGCCCUAUAACAAGGCCAGCAAAACAGAAUUUUGCAGCAAUCAGCUGUUCCUCAGACCACUGUGGAUCCAACAGAGGAUUGAGCAUCA
B20: chr3:10015032:10015033:+_ENSMUSG00000027533_ENSMUST00000029046|mus_mus|mus_mus_mus_hu_True|28_48 (ssRNA)
RNA: GGGAGUUCUACAGUCCGACGAUCGUUUUUACCAUCACAAGUGAUGAUACAAUCUGGCUUGGCCAUUGCGCCCAUUUUUCGCAAAGCCAGUCCUACUCCUAGCUCCUUCAUGUACUCAUCAAAGCCUUUGCUGUCCACCAGGCGCAACAGAGGAUUGAGCAUCA
B21: chr2:97007812:97007813:+_ENSG00000121152_ENST00000240423|hu_hu|FALSE|FALSE (ssRNA)
RNA: GGGAGUUCUACAGUCCGACGAUCGGACAGUUUGAUACAGGUGGAGUAAUGUUCCGUAAUCUGCGUGUUUGUAAACUUGGGGAUAGUAGCUGAAAUGUCAAUACUCCUGCUGGAGGGGGAGGCCAAUAAGCGAGGUGAGUCAGUCAACAGAGGAUUGAGCAUCA
B22: chr14:55655841:55655842:-_ENSG00000126787_ENST00000247191|hu_mus|FALSE|FALSE (ssRNA)
RNA: GGGAGUUCUACAGUCCGACGAUCCACCCUGUGUCUGUUCUCCUUCUGAGACAGAGACUUUCUAUGAGCCAAGUUGGUUCUAACCAUCUCAGUGCUCGAGUCUUUCCGAAACCGACUGGCAAAACGUGACACCAGCAUCCUGAACAACAGAGGAUUGAGCAUCA

This is one part of the list.

In the experiment the target is T1, UNK ZnF1-3. The experiment can be described thus: nsRBNS (natural sequence RNA bind-n-seq); RBNS binding buffer (assumed for nsRBNS): 25 mM Tris pH 7.5, 150 mM KCl, 3 mM MgCl2, 0.01% Triton X-100, 500 ug/ml BSA, 20 U/ml SUPERase-In, 4 C; UNK is unkempt and MSI1 is Musashi-1; names of the RNAs are library labels; protein concentration not given here; high values mean tight binding.
Consider B1, for which the binding signal worked out at 1.61 enrichment R. Molecule B2 came in with a binding signal of 0.408 enrichment R. In turn, B3 showed a binding signal of 0.712 enrichment R. Next, B4: 1.09 enrichment R; B5: 0.837 enrichment R.

The molecule B6 displayed a binding signal of 0.764 enrichment R.

B7 returned a binding signal of 0.52 enrichment R. The molecule B8 showed a binding signal of 1.29 enrichment R. B9 returned a binding signal of 0.769 enrichment R.

In turn, B10 showed a binding signal of 0.69 enrichment R. Next, B11: 1.6 enrichment R.

For the molecule B12, the binding signal came out at 0.76 enrichment R. On to B13, for which the binding signal was found to be 0.439 enrichment R. B14 returned a binding signal of 0.437 enrichment R. For B15, the binding signal was 0.594 enrichment R. Molecule B16 yielded a binding signal of 1.16 enrichment R. For B17, the binding signal is 0.429 enrichment R. Take B18: the binding signal was found to be 0.844 enrichment R. With B19, the binding signal is 1.09 enrichment R. Next, B20: 0.653 enrichment R. Next, B21: 1.22 enrichment R; B22: 0.793 enrichment R.

For the origin of these results see paper PMC12136788.
